# Results taken from PubChem BioAssay AID1347417 (National Center for Advancing Translational Sciences (NCATS), 2020).
# The whole screen tested about 120,000 compounds, of which about 5,300 (4.4%) were called active. The shares of active, inactive and inconclusive entries below differ from those in the screen. Calls come from the whole dose curve; as a rule, active = well fitted inhibition curve with a large enough effect; inconclusive = small, poorly fitted or top-dose-only effect; inactive = no such curve, though single readings can be large or run the other way. A potency beside an inconclusive call is a rough fit, not a confirmed value.
# Experiment: qHTS Primary assay for Inhibitors of Plasmodium falciparum Dd2 growth in vitro; note: nearly all actives have a fitted effect of over 65% in size;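 for activity, negative = inhibition: plate controls were DMSO vehicle for no effect and reference drug for full effect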
# Conditions: P. falciparum Dd2 growth, SYBR Green, 72 h; activity, negative = inhibition: at 28.9 µM (top of the series) unless noted; series mostly up to 28.9 µM
# How it was run: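 Readout: SYBR Green fluorescence, 485 nm excitation, 535 nm emission, after ~16 h lysis at 37C. Before that, Dd2-infected red cells (2.5% hematocrit) grew 72 h with compound, 29 uM top final concentration.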
# Potency is the fitted concentration of half-maximal effect; tags give direction and shape of the fitted curve.
SMILES,Potency,"activity, negative = inhibition"
CCOc1ccc(C2c3c(oc4ccc(C)cc4c3=O)C(=O)N2CCCN2CCOCC2)cc1 (configuration not stated),"inconclusive: 7.94 µM [inhibitor, partial curve, poor fit]",
CCOc1ccc(Nc2c(S(=O)(=O)c3ccc(Cl)cc3)cnc3ccc(OCC)cc23)cc1,"inconclusive: 17.8 µM [inhibitor, single point]",
COc1ccc(-c2noc([C@@H]3C[C@H](NCc4ccccn4)CN3C)n2)cc1,active: 10 µM,
COc1ccc(Cl)cc1NC(=O)CN1C(=O)C(C)(C)c2cc(S(=O)(=O)N3CCCCC3)ccc21,"inconclusive: 17.8 µM [inhibitor, single point]",
COc1ccc2[nH]c3c(c2c1)CCN(C)C31CCN(C(=O)COc2ccc(F)cc2)CC1,"inconclusive: 10 µM [inhibitor, single point]",
CC(C)C1C(=O)Nc2ccc(S(=O)(=O)NCCc3ccc(Cl)cc3)cc21 (configuration not stated),"inconclusive: 10 µM [inhibitor, single point]",
CCc1noc(-c2cccn3c(CNC(=O)c4cccc(OC)c4)nnc23)n1,inactive,
O=C1N(CC2CC2)CCOC12CCN(Cc1ccc(F)c(Cl)c1)CC2,"inconclusive: 2.24 µM [inhibitor, full curve, poor fit]",
CN(C)CCCC(=O)N1Cc2ccccc2CC2(CCCCN2CC2CCNCC2)C1 (configuration not stated),,inconclusive: -67.3% [inhibitor]
COc1ccc(CCN(C)Cc2nc(-c3ccccn3)no2)cc1OC,inactive,
Cc1ccccc1Nc1nn2c(=O)c3ccc(C(=O)NCCc4ccc(Cl)cc4)cc3nc2s1,active: 3.16 µM,
CCOC(=O)c1sc2ccccc2c1S(=O)(=O)N1CCN(c2cccc(C)c2)C(C)C1 (configuration not stated),"inconclusive: 17.8 µM [inhibitor, single point]",
Cc1ccc(-c2cc3c(=O)n(CCNC(=O)Cc4ccccc4Cl)ccn3n2)cc1C,"inconclusive: 10 µM [inhibitor, single point]",
CC(C)=CCC1(CO)CCCN(Cc2[nH]c3ccc(F)cc3c2C)C1 (configuration not stated),active: 2.24 µM,
COc1ccc2c(c1)CC(C(=O)NCCCN1CCN(c3cccc(Cl)c3)CC1)CO2 (configuration not stated),"inconclusive: 5.01 µM [inhibitor, partial curve, poor fit]",
O=C(N1CCC2(CC1)CC(Cc1nc(-c3cccnc3)no1)CCO2)C1(c2ccccc2)CC1 (configuration not stated),active: 7.94 µM,
CCOc1ccccc1CN1CCC2(CCN(C(=O)Cc3cccc(Cl)c3)CC2)Oc2ccccc21,"inconclusive: 0.562 µM [inhibitor, partial curve, poor fit]",
Cc1ccc(CNC(=O)CCCn2c(=O)c3sccc3n(CC(=O)Nc3c(C)cccc3C)c2=O)cc1,"inconclusive: 8.91 µM [inhibitor, single point]",
O=C(NCCN1CCN(c2cccc(Cl)c2)CC1)Nc1ccccc1C(F)(F)F,"inconclusive: 5.62 µM [inhibitor, partial curve]",
Cc1ccc(CNC(=O)N2CCCOCCNC(=O)[C@@H]3CCC[C@@H]32)cc1,inactive,
Cc1ccc(CNc2nc(-c3ccco3)nn2S(=O)(=O)c2ccc3ccccc3c2)cc1,"inconclusive: 12.6 µM [inhibitor, partial curve, poor fit]",

SMILES,Potency,"activity, negative = inhibition"
O=C(CSc1ncc(-c2ccccc2)[nH]1)Nc1ccc(Cl)cc1,inactive,
O=C(OCc1ccccc1)N1CCOCC12CCN(Cc1ccc(O)cc1)CC2,"inconclusive: 1.41 µM [inhibitor, partial curve, poor fit]",
Cc1c(C)n(Cc2ccc(F)cc2)c2ccc(C(=O)NCc3ccco3)cc12,active: 3.55 µM,
CC1CCCCN1C(=O)Cn1ncc2c3ccccc3n(Cc3ccccc3F)c2c1=O (configuration not stated),active: 12.6 µM,
COc1ccccc1-c1noc(-c2ccc(NC3CCCCC3)c([N+](=O)[O-])c2)n1,"inconclusive: 17.8 µM [inhibitor, single point]",
C=CCN(Cc1ccccc1OCC)C(=O)c1ccc(N(C)S(C)(=O)=O)cc1,"inconclusive: 0.794 µM [inhibitor, full curve, poor fit]",
CN(C(=O)c1cc2ccccc2oc1=O)C1CCCN(CCCc2ccccc2)C1 (configuration not stated),"inconclusive: 20 µM [inhibitor, single point]",
O=C1CCN(C(=O)C2CCN(C(=O)Cc3cccc(F)c3)CC2)CCCCCCN1,inactive,
CC(C)c1noc(-c2ccn3c(CNC(=O)Cc4ccc(F)cc4)nnc3c2)n1,"inconclusive: 17.8 µM [inhibitor, single point]",
Cc1ccc2c(c1)nc1n2[C@@H](CNS(C)(=O)=O)COC1,inactive,
Cc1cc(=O)n(CC(=O)Nc2cc(Cl)ccc2C)c(N2CCOCC2)n1,"inconclusive: 12.6 µM [inhibitor, single point]",
CCOc1ccc(CC(=O)N2CCC3(CC2)N=C(c2ccccc2)NO3)cc1,inactive,
Cc1cccc(Cn2c(SCc3ccc(C(=O)NCc4ccccc4F)cc3)nc3ccncc32)c1,active: 11.2 µM,
CC(C)CN1CCN(C2CCOC3(CCN(C(=O)c4cccs4)CC3)C2)CC1 (configuration not stated),inactive,
COc1ncccc1-c1cc(-c2cccnc2)c2cncn2c1,"inconclusive: 12.6 µM [inhibitor, single point]",
Cc1ccc(NC(=O)Cn2c(-c3cccc(Cl)c3)nc(C)c(CCO)c2=O)cc1,inactive,
CCCn1nc(C)cc1CN(CC)C(=O)C1CCN(c2cnn(C)c(=O)c2)C1 (configuration not stated),"inconclusive: 2.82 µM [inhibitor, single point]",
CCc1nc2cccnc2n1-c1ccc(CC(=O)Nc2c(C)cccc2C)cc1,"inconclusive: 20 µM [inhibitor, partial curve, poor fit]",
O=C(c1ccc(F)c(F)c1)N1C[C@@H](CO)[C@H](c2nc(C3CC3)no2)C1,"inconclusive: 10 µM [inhibitor, partial curve, poor fit]",
CSc1ccc(CN2CCC(CO)(CN3CCCC3)CC2)cc1,"inconclusive: 8.91 µM [inhibitor, partial curve]",
Cc1cc(C)n2c(Nc3ccc(C(C)C)cc3)c(-c3ccsc3)nc2n1,"inconclusive: 20 µM [inhibitor, single point]",
